In PMC12136788:
The list shows a part of the results.

T1: UNK ZnF1-3 (human, UniProt Q9C0B0 31-174)
T1 sequence: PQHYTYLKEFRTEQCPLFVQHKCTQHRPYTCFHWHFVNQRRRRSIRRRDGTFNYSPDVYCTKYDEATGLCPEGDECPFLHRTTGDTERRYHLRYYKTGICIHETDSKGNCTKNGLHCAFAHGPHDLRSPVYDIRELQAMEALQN

B1: chr11:87794696:87794697:-_ENSMUSG00000020483_ENSMUST00000020775|mus_hu|FALSE|FALSE (ssRNA)
RNA: GGGAGUUCUACAGUCCGACGAUCGCCUUUUAUUUUGUAUAGGGAAAGAAAGAGAAAAGGGAGAGGUGGGAGAGAUUUCCUAGUGCAAUACAACCAAAAAAUAUUUUUAAAGUCUUGAAAAAUAAACAUAAAGCAGCCUUCUUCCAACAGAGGAUUGAGCAUCA
B2: chr18:24791317:24791318:+_ENSMUSG00000024271_ENSMUST00000025120|mus_hu|motif|central (ssRNA)
RNA: GGGAGUUCUACAGUCCGACGAUCACUCCCAGUGAAGAAAUACUUGCUGUCAGGACUCCAAUCACAAGACCAAAUAAUUCGGCUGUGCACAGAAGUAAUUUUGUUGGUGAAGGCAAAAAGACUAAAAACUGGCUCGAACUCAGGCAACAGAGGAUUGAGCAUCA
B3: chr19:16406628:16406629:+_ENSMUSG00000024639_ENSMUST00000025541|mus_hu|FALSE|FALSE (ssRNA)
RNA: GGGAGUUCUACAGUCCGACGAUCGACACUUUGUAAGUCAAAGGGGUAUUCGAUGAUCCCUGUGGUGGGGACUCGAACUCUAAGCACAUCUUGUUGCGUAGGCAGGUAGGCAGGGUCAGCUACGCGGUCCAAGUCAUUAAGAUACAACAGAGGAUUGAGCAUCA
B4: 92970762_92970882_2270_CDS_ENSG00000004766_ENST00000305866|human|control|control (ssRNA)
RNA: GGGAGUUCUACAGUCCGACGAUCUUCCGUGGCUACCACUCUUUCUGCCAACCCAUACAGCGUAUCCCCAGAUGUCAAAACCACUAGGUGACUGAGGUGUGGACUUGGCACCUUCUCCUUUCUUUCUUCUGCUGCUGUGAGUGUCAACAGAGGAUUGAGCAUCA
B5: chr2:27535424:27535425:-_ENSG00000115204_ENST00000380044|hu_hu|motif|central (ssRNA)
RNA: GGGAGUUCUACAGUCCGACGAUCUUUGGCCCAGUUGUCCUGGGCUGACAGUCCAUUAAGUGCCCCUACCAGUGGGAGAAAGCAGCCGGGAAAACACGGGGCAAAGCCCCCCUGAUCCAACAACAUCUUCUUCAGUGCAUCCACCAACAGAGGAUUGAGCAUCA
B6: chr2:114342542:114342543:-_ENSMUSG00000057147_ENSMUST00000102542|mus_mus|FALSE|FALSE (ssRNA)
RNA: GGGAGUUCUACAGUCCGACGAUCCUGGGAUUAAAGGUGUACACCACUGCCUGGCUACGCAUGAUUCUUAAGACAGUAAAACUAUUGUGUUAUAGGAGUGUAAUGAUGCAUAUAUGUCUUUGAACAUUUGUUAAAUCCCGUGGACAACAGAGGAUUGAGCAUCA
B7: chr7:20150648:20150649:-_ENSMUSG00000044709_ENSMUST00000117222|mus_mus|FALSE|FALSE (ssRNA)
RNA: GGGAGUUCUACAGUCCGACGAUCCUUGAAAGAAUAGGAAAUUAUGUCACUACAUCGAAGCAAGGCCUCGGCCUGUACACCUAUGGGAGUCUGCAGUUGGGAAACGUAGAAGUUGGCCACAUCCAGGUCUGUGGCUCCAAACUGCAACAGAGGAUUGAGCAUCA
B8: chr7:56045873:56045874:+_ENSG00000146729_ENST00000322090|hu_hu|FALSE|FALSE (ssRNA)
RNA: GGGAGUUCUACAGUCCGACGAUCCUUUUUGGCUAGGAGAUUGGAGUGGGCAUCUUUUCUUGGAUCAACUUUCCGGACAAAUAAGGAUUUUAGCCAGCUGUCUUCUCGAGAUCUGUUGCUGGAAGAUGUCCAUGUCCGGAGCCUCAACAGAGGAUUGAGCAUCA
B9: chr13:33351070:33351071:+_ENSG00000083642_ENST00000315596|hu_mus|FALSE|FALSE (ssRNA)
RNA: GGGAGUUCUACAGUCCGACGAUCAUAACCCAGCCUUAGCUGUCCUCACAGGCAGAGGCCUCCCAUCACCACGGUGCCAACACUGUUGCAAAUGAAGAAAGUUAAACACUGAAGGAUUAAGACACAAUUCAAACAUCUUUUAAACAACAGAGGAUUGAGCAUCA
B10: chr16:94664741:94664742:+_ENSMUSG00000040785_ENSMUST00000117648|mus_hu|mus_mus_mus_hu_False|28_38 (ssRNA)
RNA: GGGAGUUCUACAGUCCGACGAUCUGGUACUGAUCUUGGUAGCUGAUAUUCAGGAGAAAGGCUGGCCAAGGGUGUAUAUAUGCUGGUGUACUGGGGCAGGCUAGGUACCAUGUUAAUGUAUGCUGGCGGUGUCUGGGUGAUAUCCAACAGAGGAUUGAGCAUCA
B11: chr7:56126341:56126342:+_ENSG00000146731_ENST00000540286|hu_mus|hu_hu_hu_mus_True|8_38 (ssRNA)
RNA: GGGAGUUCUACAGUCCGACGAUCCAUGUUUCUCCUCUUGGCUCUGCGCAGAGCUACGAUCCCUUCUUUCGCAAGGGCAUCUAAGGAAAAGGGGUCAAUUCCCUUUUGAUUAAUAACGACAAAUCCUUUAUCUGAAUCACCACACAACAGAGGAUUGAGCAUCA
B12: chr2:55462594:55462595:+_ENSG00000143947_ENST00000402285|hu_mus|FALSE|FALSE (ssRNA)
RNA: GGGAGUUCUACAGUCCGACGAUCUCCCAUGAAAACUCCAGCACCACAUUCAUCAGAAGGACACUCUCGACGAAGUCGGCUAAUUUUGCCAUUUUCAUCCACCUUAUAGUAUUUCAGCACAGCCAACUUAACCUUCUUCCUCUUCAACAGAGGAUUGAGCAUCA
B13: chr4:144460044:144460045:+_ENSG00000153147_ENST00000283131|hu_mus|hu_hu_hu_mus_False|1_8 (ssRNA)
RNA: GGGAGUUCUACAGUCCGACGAUCACGGUCCAUAGCCUGAAGAUCAACUUGCGGAUUCCAAUCUGAGUCAUAUAAAAUGACUACAUCAGCAGUUGCAAGAUUGAUGCCCAGACCACCAGCACGUGUGCUUAACAUGAAAACAAACAACAGAGGAUUGAGCAUCA
B14: chr1:109605286:109605287:-_ENSG00000197780_ENST00000461096|hu_hu|motif|central (ssRNA)
RNA: GGGAGUUCUACAGUCCGACGAUCAUAAACAAUAACAUUCAGUGAUCUACUUAAAUCCAAUUGUAAUCCUUACUUUAAACGGAGGGCAAUAAUAAUUUAAUACAUAGAGUAAAUACACACAAAACCUGUGUAUUCAGAACUACACAACAGAGGAUUGAGCAUCA
B15: chr8:35203877:35203878:-_ENSMUSG00000031513_ENSMUST00000033910|mus_mus|motif|central (ssRNA)
RNA: GGGAGUUCUACAGUCCGACGAUCGGAAGGGCACAUCCAAGCAUCAGGAACAUCAGCCCGAUCGCUCCUCCAAAGGACAAACGGAUUAAAGCUUUGAUGCCCGCCAUGGCGGUGACGUCGCUCCUGGCUCCACGACCCGGGCGGCAACAGAGGAUUGAGCAUCA
B16: 108849663_108849783_1118_CDS_ENSMUSG00000025651_ENSMUST00000026743|mouse|control|control (ssRNA)
RNA: GGGAGUUCUACAGUCCGACGAUCGACCAUGUCAUCGAUACUCAUGGCAUCACAGACAAAGUGUGCGCCCAGCAGCCCAGUAUCAGAGUAGGAGAUGUUGAAGGUCUGGAAACUCUGGCAAAGCUUGUUAGCCACAGCAACGGACAACAGAGGAUUGAGCAUCA
B17: chrX:11616105:11616106:-_ENSMUSG00000040363_ENSMUST00000043441|mus_mus|motif|central (ssRNA)
RNA: GGGAGUUCUACAGUCCGACGAUCGAUGUUAUAACACGGCAAGAGGGAGCUUUCAGCAAACUCAAACUCAAACAAAUCGCGGUAGGUAUCCUCUUCCUCAUCUGGGUCUUCUGGUCCUGGGGGAUUAGCCAAAACAUCGUACCCCAACAGAGGAUUGAGCAUCA
B18: 72554271_72554511_1640_CDS_ENSG00000137478_ENST00000311172|human|control|control (ssRNA)
RNA: GGGAGUUCUACAGUCCGACGAUCCAAAGCGGCCAGGGACUGCAGCAUGCUCAGGAGGCUGUUCGAGGUGGGAAACUGUAGGUACUUUUCUGGCACAUAACCCACUUGGCCAACUUUAUUUCGAGCCUUUACCCAGUCUUCCAUCAACAGAGGAUUGAGCAUCA
B19: chr11:86132931:86132932:-_ENSMUSG00000034297_ENSMUST00000043624|mus_mus|FALSE|FALSE (ssRNA)
RNA: GGGAGUUCUACAGUCCGACGAUCUCCAAAAGGUCCAACUGGAUCAUCCUUGAAUUUAUCAUUUGGAAGUUGAGGUGGUAAAAAUUCUACAUCUUUUUUCUUUGGGACUUUGUAAUACUUCCAGGCUACAUUAGCUUCAUCUUCCAACAGAGGAUUGAGCAUCA
B20: chr4:17845017:17845018:+_ENSG00000109805_ENST00000514176|hu_mus|hu_hu_hu_mus_False|1_88 (ssRNA)
RNA: GGGAGUUCUACAGUCCGACGAUCGCUCUCUUAACUUGUAUCUUCAUGAGAAAUUGGUGCAAGGUUAAGUUUACUUUUCUGUAGCGCAGCUGUUUUGGCUCGUCUGGGUAAUCUCAUCUUCAUUUCUGAUGGUGGUUUGGAACUCAACAGAGGAUUGAGCAUCA
B21: 95085810_95085930_128_5pUTR_ENSMUSG00000015711_ENSMUST00000015855|mouse|control|control (ssRNA)
RNA: GGGAGUUCUACAGUCCGACGAUCGCCUCCUGGGAAAUGUAGUCCAGCAGCUCGUGUUUGUCCUCAAGUGAGCAGUUUUCGGAGGGCUAUGACAUGCAAAUUGUGUAUGUGUCACAAUAACUCGCCUUUAUGGCAUCUGAACUUCAACAGAGGAUUGAGCAUCA
B22: chr14:21319651:21319652:-_ENSMUSG00000021816_ENSMUST00000161445|mus_mus|FALSE|FALSE (ssRNA)
RNA: GGGAGUUCUACAGUCCGACGAUCUAGACAUCUGAAGGGUUGAAGAGAACCAUUGCUUCUAGGCUGCAUUACUUAGUCAAAAACAUUUCCAGACAUUUUUAAUUUCCUUUGCAUUUAAACAUAAAGAUGAUACAAAGCCAGCAGCAACAGAGGAUUGAGCAUCA

The binders below were run against T1, UNK ZnF1-3 (assay: nsRBNS (natural sequence RNA bind-n-seq); RBNS binding buffer (assumed for nsRBNS): 25 mM Tris pH 7.5, 150 mM KCl, 3 mM MgCl2, 0.01% Triton X-100, 500 ug/ml BSA, 20 U/ml SUPERase-In, 4 C; UNK is unkempt and MSI1 is Musashi-1; names of the RNAs are library labels; protein concentration not given here; high values mean tight binding).

Binder	binding signal [enrichment R]
B1	3.04
B2	2.01
B3	1
B4	0.655
B5	1.14
B6	1.18
B7	0.807
B8	0.343
B9	1.18
B10	1.22
B11	0.982
B12	0.949
B13	0.863
B14	1.21
B15	0.99
B16	1.02
B17	1.34
B18	1.23
B19	0.797
B20	0.492
B21	0.775
B22	1.21
